Laboratory results reported in paper PMC8785984.
These are yes or no findings as the source states them, for the method shown. Binding seen in cells or lysates may run through a third protein. Some entries that bind do so weakly or less than the wild type. Each block holds one substance with its values, some of them ahead of it.

By UniProt entry, the sequences of proteins in these tests, tags left out.
UniProt Q96DH6: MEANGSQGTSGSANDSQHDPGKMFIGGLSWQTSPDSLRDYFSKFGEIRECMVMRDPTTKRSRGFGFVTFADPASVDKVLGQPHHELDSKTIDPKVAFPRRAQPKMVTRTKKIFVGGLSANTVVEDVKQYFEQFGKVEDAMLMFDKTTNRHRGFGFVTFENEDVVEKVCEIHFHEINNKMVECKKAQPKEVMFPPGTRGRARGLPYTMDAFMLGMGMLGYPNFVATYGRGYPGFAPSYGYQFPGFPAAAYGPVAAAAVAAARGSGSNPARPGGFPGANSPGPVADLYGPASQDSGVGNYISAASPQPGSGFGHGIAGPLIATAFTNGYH
UniProt Q93034: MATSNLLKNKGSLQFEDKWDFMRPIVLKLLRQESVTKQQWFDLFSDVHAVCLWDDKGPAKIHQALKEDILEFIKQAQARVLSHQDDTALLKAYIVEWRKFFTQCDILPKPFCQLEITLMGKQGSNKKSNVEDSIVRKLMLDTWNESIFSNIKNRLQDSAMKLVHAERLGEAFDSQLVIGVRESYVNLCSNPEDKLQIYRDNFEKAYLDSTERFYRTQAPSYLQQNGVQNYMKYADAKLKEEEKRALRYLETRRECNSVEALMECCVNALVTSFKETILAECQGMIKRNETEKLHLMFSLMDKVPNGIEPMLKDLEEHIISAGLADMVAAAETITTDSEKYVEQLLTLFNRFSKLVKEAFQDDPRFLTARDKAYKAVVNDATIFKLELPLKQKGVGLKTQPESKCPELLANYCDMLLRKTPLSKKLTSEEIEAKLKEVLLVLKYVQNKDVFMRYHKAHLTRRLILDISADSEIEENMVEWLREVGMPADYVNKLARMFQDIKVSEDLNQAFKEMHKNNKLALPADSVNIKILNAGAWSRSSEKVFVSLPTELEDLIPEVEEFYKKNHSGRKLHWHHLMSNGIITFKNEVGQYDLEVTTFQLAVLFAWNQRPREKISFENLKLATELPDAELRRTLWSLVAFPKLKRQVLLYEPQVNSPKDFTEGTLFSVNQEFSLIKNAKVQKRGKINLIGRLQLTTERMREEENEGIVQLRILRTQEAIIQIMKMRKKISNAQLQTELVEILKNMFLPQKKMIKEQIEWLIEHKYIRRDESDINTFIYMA
UniProt Q13616: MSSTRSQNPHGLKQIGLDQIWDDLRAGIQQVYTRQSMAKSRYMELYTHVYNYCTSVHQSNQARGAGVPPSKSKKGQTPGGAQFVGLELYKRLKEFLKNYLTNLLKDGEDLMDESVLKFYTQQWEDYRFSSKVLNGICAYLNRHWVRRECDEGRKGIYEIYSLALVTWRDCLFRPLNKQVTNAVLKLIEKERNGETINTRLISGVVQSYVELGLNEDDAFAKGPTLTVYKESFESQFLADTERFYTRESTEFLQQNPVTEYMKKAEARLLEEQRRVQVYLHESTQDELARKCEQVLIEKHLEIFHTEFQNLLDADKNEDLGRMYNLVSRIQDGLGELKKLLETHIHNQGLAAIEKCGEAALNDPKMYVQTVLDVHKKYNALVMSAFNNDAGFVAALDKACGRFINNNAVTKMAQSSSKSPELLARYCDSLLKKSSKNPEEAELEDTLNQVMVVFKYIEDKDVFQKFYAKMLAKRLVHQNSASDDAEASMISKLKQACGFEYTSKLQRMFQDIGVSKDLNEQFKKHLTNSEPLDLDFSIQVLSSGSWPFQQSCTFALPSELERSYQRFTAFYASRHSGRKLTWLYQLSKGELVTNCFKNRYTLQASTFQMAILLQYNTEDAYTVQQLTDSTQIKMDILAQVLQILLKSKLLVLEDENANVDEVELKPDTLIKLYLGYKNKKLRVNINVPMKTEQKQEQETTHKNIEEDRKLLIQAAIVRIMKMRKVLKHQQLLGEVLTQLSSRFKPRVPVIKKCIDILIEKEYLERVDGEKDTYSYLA
UniProt Q13620: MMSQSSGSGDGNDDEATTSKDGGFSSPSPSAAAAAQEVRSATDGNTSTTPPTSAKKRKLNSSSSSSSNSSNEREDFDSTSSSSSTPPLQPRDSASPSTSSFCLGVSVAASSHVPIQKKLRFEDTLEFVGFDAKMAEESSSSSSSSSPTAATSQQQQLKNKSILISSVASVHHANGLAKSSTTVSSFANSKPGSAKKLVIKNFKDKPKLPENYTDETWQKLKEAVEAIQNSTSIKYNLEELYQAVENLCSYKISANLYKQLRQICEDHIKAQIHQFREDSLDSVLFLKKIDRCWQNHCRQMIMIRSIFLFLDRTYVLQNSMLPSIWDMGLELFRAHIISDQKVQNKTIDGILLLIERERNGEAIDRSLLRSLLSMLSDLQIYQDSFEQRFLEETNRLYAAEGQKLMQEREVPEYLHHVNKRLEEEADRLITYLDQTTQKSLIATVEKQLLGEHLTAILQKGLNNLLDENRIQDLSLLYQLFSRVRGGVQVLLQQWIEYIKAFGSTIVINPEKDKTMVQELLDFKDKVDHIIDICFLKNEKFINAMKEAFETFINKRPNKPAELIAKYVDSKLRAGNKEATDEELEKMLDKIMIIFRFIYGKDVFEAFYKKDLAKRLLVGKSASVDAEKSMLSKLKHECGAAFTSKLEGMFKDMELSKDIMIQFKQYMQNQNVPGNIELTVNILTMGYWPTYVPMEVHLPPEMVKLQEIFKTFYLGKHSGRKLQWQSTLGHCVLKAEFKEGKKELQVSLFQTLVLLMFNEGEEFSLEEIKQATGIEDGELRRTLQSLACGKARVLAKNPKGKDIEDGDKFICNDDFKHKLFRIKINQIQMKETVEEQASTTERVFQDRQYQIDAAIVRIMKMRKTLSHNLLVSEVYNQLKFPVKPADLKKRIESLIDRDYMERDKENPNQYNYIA
UniProt Q969H0: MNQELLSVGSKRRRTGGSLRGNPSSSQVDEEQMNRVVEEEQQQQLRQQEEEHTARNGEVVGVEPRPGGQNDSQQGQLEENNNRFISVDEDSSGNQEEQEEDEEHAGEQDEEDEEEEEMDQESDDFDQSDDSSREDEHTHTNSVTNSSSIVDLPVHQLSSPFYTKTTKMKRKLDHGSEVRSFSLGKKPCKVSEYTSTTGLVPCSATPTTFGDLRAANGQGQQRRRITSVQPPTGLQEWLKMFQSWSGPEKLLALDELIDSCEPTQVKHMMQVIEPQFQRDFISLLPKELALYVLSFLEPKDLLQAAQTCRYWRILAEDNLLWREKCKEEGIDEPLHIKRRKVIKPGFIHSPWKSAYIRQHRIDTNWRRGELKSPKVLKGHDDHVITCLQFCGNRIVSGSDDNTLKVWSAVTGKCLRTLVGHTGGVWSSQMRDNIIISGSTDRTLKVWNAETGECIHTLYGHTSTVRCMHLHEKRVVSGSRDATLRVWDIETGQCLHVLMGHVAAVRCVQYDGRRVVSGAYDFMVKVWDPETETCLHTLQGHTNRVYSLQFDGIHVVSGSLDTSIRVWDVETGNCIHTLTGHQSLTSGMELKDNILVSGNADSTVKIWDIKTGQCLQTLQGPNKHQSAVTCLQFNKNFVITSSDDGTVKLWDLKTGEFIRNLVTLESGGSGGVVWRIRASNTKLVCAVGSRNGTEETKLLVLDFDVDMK

How the values were obtained:
[1] = target: Flag-MSI2 (human) (UniProt Q96DH6); experiment: co-IP; SGC7901 cells transfected with Flag-MSI2; IP with anti-Flag antibody, western blot for endogenous partners; MG-132 (20 μM) for 6 h before harvesting; RIPA lysate
[2] = target: Flag-MSI2 (human) (UniProt Q96DH6); experiment: co-IP; 293T cells transfected with Flag-MSI2 constructs and HA-β-Trcp or HA-FBXW7; IP with anti-Flag antibody, western blot; MG-132 (20 μM) for 6 h before harvesting; RIPA lysate
[3] = target: Flag-Cullin 5 (UniProt Q93034); experiment: co-IP; 293T cells co-transfected with Flag-Cullin family proteins (1, 3, 4B, 5) and Myc-MSI2; IP with anti-Flag or anti-Myc antibody, western blot; MG-132 (20 μM) for 6 h before harvesting; RIPA lysate
[4] = target: Flag-Cullin1 (UniProt Q13616); experiment: as above
[5] = target: Flag-Cullin 4B (UniProt Q13620); experiment: as above

binding [1]: no binding
Substance: FBXW7 (endogenous, SGC7901) (from UniProt Q969H0 1-707)

binding [2]: no binding
Substance: HA-FBXW7 (from UniProt Q969H0 1-707)

binding [3]: no binding | binding [4]: binds | binding [5]: no binding
Substance: Myc-MSI2 (from UniProt Q96DH6 1-328)
